Results from the supplement of paper PMC10326071.
This is one part of the list. Single values are uncertain, as repeats are few or missing.

tested on: SARS-CoV-2 nsp3 SARS-unique domain core (SUD-core, nsp3 residues 413-676); experiment: dissociation rate constant koff (BLI); higher = faster dissociation; details: 100 µM; 25 °C

| SMILES | dissociation rate constant koff [s⁻¹] |
| --- | --- |
| CC(C)c1cc(/C=C(\C#N)C(=O)NCCCc2ccccc2)cc(C(C)C)c1O | 0.0319 |
| CC(C)(O)CC(=O)NCCn1ccc2ncnc(Nc3ccc(Oc4cccc(C(F)(F)F)c4)c(Cl)c3)c21 | 0.0863 |
| Cc1[nH]c(/C=C2\C(=O)Nc3ccc(F)cc32)c(C)c1C(=O)NCCN1CCCC1 | 1.33 |
| Nc1ccc(O)c(C(=O)O)c1 | 0.00111 |
| [N-]=[N+]=N[C@@H]1[C@H](O)[C@@H](n2ccc(=O)[nH]c2=O)O[C@H]1CO | 0.0189 |
| Cc1ccc(Oc2ccnc3cc(-c4cnn(C5CCNCC5)c4)ccc23)cc1 | 0.116 |
| Cc1[nH]c(/C=C2\C(=O)Nc3ccc(S(=O)(=O)Cc4c(Cl)cccc4Cl)cc32)c(C)c1C(=O)N1CCC[C@@H]1CN1CCCC1 | 0.159 |
| Cc1c(C(=O)Nc2ccc(Oc3ccnc4cc(OCC(C)(C)O)ccc34)c(F)c2)c(=O)n(-c2ccccc2)n1C | 0.159 |
| Nc1nccc(-c2c(-c3ccc(F)cc3)ncn2C2CCCCC2)n1 | 0.485 |
| CN(C)Cc1ccc(-c2cnn3c(-c4cccc(NC(=O)c5cccc(C(F)(F)F)c5)c4)ccnc23)cc1 | 0.00467 |
| Cn1cc(-c2cnc3cnn(S(=O)(=O)c4cnc5ccc(-c6cnn(C)c6)cn45)c3c2)cn1 | 0.119 |
| CN[C@@H]1C[C@H]2O[C@@](C)([C@@H]1OC)n1c3ccccc3c3c4c(c5c6ccccc6n2c5c31)C(=O)NC4 | 0.179 |
| COc1cc(C)c(Sc2cnc(NC(=O)c3ccc(CNC(C)C(C)(C)C)cc3)s2)cc1C(=O)N1CCN(C(C)=O)CC1 (centres undefined) | 0.0448 |
| Cc1ccc(-n2nc(C(C)(C)C)cc2NC(=O)Nc2ccc(OCCN3CCOCC3)c3ccccc23)cc1 | 0.266 |
